Test results published in PubChem BioAssay AID1645882 (National Center for Advancing Translational Sciences (NCATS), 2021).
Screen size: about 16,000 compounds; about 120 (0.75%) were called active. Another 4% or so got no clear call; they are omitted. The call rests on the fitted dose curve; in most records, active means well fitted inhibition curve with a large enough effect; inconclusive means small, poorly fitted or top-dose-only effect; inactive means no such curve, though single readings can be large or run the other way. Some of the results follow.

target: Rap guanine nucleotide exchange factor 3 (Homo sapiens) (UniProt O95398); assay: Validation qHTS for antagonist of cAMP-regulated guanine nucleotide exchange factor 3 (EPAC1); conditions: EPAC1 Rap1B-BODIPY-GDP exchange, fluorescence; series mostly up to 150 µM; activity change, negative = inhibition: at the top concentration; further: nearly all actives have a fitted effect of over 75% in size;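 on activity change, negative = inhibition: plate controls were DMSO for no effect and ATA control for full effect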
UniProt O95398, sequence (O95398 whole entry, looked up): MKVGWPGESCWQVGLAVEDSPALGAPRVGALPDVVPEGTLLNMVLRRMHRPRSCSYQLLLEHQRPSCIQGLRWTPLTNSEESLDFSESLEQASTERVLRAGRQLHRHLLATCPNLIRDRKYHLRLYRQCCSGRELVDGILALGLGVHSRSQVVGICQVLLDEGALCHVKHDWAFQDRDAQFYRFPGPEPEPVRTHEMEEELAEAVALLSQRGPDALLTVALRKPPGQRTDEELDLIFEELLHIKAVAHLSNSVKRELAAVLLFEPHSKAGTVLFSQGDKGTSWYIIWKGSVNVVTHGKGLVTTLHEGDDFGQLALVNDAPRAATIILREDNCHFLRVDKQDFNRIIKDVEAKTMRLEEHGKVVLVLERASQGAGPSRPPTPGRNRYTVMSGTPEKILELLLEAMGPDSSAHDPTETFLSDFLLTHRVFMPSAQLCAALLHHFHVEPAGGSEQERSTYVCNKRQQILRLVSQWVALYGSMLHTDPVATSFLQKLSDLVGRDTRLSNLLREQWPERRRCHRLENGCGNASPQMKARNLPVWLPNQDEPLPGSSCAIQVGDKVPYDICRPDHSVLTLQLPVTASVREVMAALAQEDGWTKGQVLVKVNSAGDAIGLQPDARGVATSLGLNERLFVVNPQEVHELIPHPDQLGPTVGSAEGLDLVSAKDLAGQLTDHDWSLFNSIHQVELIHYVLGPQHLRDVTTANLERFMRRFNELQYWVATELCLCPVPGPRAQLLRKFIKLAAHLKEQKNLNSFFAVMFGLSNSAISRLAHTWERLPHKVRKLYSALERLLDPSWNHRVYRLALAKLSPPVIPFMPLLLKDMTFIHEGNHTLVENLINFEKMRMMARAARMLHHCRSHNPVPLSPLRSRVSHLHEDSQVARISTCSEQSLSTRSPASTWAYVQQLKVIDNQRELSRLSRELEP
Outline: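 EPAC1 (100 nM) mixed with 250 nM RAP1B-BODIPY-GDP and 50 uM GDP; compounds in concentration series, 5 min at room temperature. Fluorescence (ex 480/em 540 nm) read every 5 min for 30 min; normalized to ATA control and DMSO.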
Potency means the concentration at half of the fitted maximal effect.

| Compound | activity change, negative = inhibition | Potency |
| --- | --- | --- |
| Cc1ccc(CNc2nc(CN3CCCCC3c3cccnc3)nc3ccccc23)o1 (configuration not stated) | inactive: 21.4% |  |
| CC[n+]1c(/C=C/C=C2/N(C)c3ccccc3C2(C)C)sc2ccccc21 | inactive: 2.32% [at 75.8 µM] |  |
| CC#CCC(C)[C@H](O)/C=C/[C@@H]1[C@H]2c3cccc(CCCC(=O)O)c3O[C@H]2C[C@H]1O (some centres not stated) | inactive: 7.01% |  |
| CNC1C(O)[C@@H]2OC(O[C@@H]3C(O)C(O)C(N)C[C@H]3N)C(N)C[C@H]2O[C@H]1O[C@@H]1OC(CO)C(N)C(O)C1O (some centres not stated) | inactive: 3.82% |  |
| c1coc(-c2ccccc2CN2CCOc3ccc(CN4CCOCC4)cc3C2)c1 | inactive: 8.82% |  |
| Cc1c(C(=O)N2CCCC2)sc2ncnc(NCCc3ccccn3)c12 | inactive: 10.3% |  |
| O=C1CCN(Cc2cccn2-c2ccccn2)CCN1Cc1ccccc1C(F)(F)F | inactive: 4.28% |  |
| CNc1ncnc2c1ncn2[C@H]1C[C@H](O)[C@@H](CO)O1 | inactive: 21.3% |  |
| COc1ccc2[nH]cc(CCNC(=O)C3CC3)c2c1 | inactive: 17.4% |  |
| C=C[C@@H]1c2cc(C)ccc2N(S(=O)(=O)c2ccc(C)cc2)[C@H](c2ccc(OC(C)=O)cc2)C1(C#N)C#N | inactive: -5.13% |  |
| COC(=O)CCCC[C@@H]1SC[C@@H]2NC(=O)N[C@@H]21 | inactive: -10.4% |  |
| COc1cc(OC)c(OC)cc1/C=c1\[nH]c(=O)/c(=C/c2cc(OC)c(OC)cc2OC)[nH]c1=O | inactive: 8.84% |  |
| Cc1ccc(N(CC2=NCCN2)c2cccc(O)c2)cc1 | inactive |  |
| O=C(NCC1Cc2cccc(-c3nccs3)c2O1)c1ccnc(Cl)c1 (configuration not stated) | inactive: 3.32% |  |
| O=c1c(-c2cc(F)cc(F)c2)nc2cnc(N3CCOCC3)nc2n1Cc1cccs1 | inactive: 8.61% |  |
| N[C@H](CCCP(=O)(O)O)C(=O)O | inactive |  |
| C#CC(N)CCC(=O)O (configuration not stated) | inactive: -7.07% [at 75.8 µM] |  |
| CO[C@H]1C[C@H](O[C@H]2[C@H](C)O[C@@H](O[C@@H]3/C(C)=C/C[C@@H]4C[C@@H](C[C@]5(C=C[C@H](C)[C@@H](C6CCCCC6)O5)O4)OC(=O)[C@@H]4C=C(C)[C@@H](O)[C@H]5OC/C(=C\C=C\[C@@H]3C)[C@]54O)C[C@@H]2OC)O[C@@H](C)[C@@H]1O | inactive: -8.89% |  |
| O=c1c(-c2ccc(O)cc2)coc2c(C3OC(CO)C(O)C(O)C3O)c(O)ccc12 (configuration not stated) | inactive: 2.26% |  |
| O=S(=O)(O)c1cc(N=C=S)ccc1/C=C/c1ccc(N=C=S)cc1S(=O)(=O)O |  | active: 35.5 µM |
| COc1ccc(CN2[C@@H](CC(C)=O)c3ccc(/C=C/C(C)=O)cc3S2(=O)=O)cc1 | inactive: 1.11% |  |

| Compound | activity change, negative = inhibition | Potency |
| --- | --- | --- |
| CN(C)c1ccc(-c2nc(Nc3ccncc3)c3ccccc3n2)cc1 | inactive: 0.782% |  |
| CCNc1ncc2nc(-c3cccc(C#N)c3)c(=O)n(C)c2n1 | inactive: 13.6% |  |
| COc1cc2nc(C#Cc3nc4cc(OC)c(OC)cc4[nH]3)[nH]c2cc1OC | inactive: 20.6% |  |
| CN(C)c1ccc(/C=c2\[nH]c(=O)/c(=C\c3ccc(N(C)C)cc3)[nH]c2=O)cc1 | inactive: 6.23% |  |
| CC(C)C[C@@H](N)C(=O)O | inactive: 19.9% |  |
| O=C(Nc1ccc(Cl)cc1)Nc1ccc(Cl)c(Cl)c1 | inactive: -10.1% |  |
| OCCNCCCOc1cccc(Cl)c1Cl | inactive: -1.75% |  |
| Cn1c(=O)c(-c2ccc(Cl)cc2)nc2cnc(Oc3ccccc3)nc21 | inactive: -5.32% |  |
| CCNc1ncc2nc(CCc3ccccc3)c(=O)n(CCC#N)c2n1 | inactive: 14.7% |  |
| O=C(Nc1cccc(F)c1)N1CC2(CCN(C(=O)c3ccncc3)CC2)C1 | inactive: 17.4% |  |
| O=C1c2c(O)cccc2Cc2cccc(O)c21 | inactive |  |
| COc1ccc2[nH]c(=O)c3c(c2c1)OC(C)(C)C=C3 | inactive |  |
| Cc1noc(C)c1-c1nc(NC2CC2)c2ccccc2n1 | inactive: 14.8% |  |
| COc1nccc(-c2c(-c3ccc(F)cc3)ncn2C2CCC(O)CC2)n1 (configuration not stated) | inactive: -14.2% |  |
| COCCCCC(=NOCCN)c1ccc(C(F)(F)F)cc1 | inactive |  |
| c1ncc(-c2ccoc2)c(NC2CC2)n1 | inactive: 11.2% |  |
| CCNc1ncc2nc(-c3ccc(Cl)cc3)c(=O)n(Cc3cccc(OC)c3)c2n1 | inactive: -10.2% |  |
| COc1ccccc1C(=O)N[C@@H]1c2ccccc2C2(CCN(Cc3ccc4c(c3)OCO4)CC2)[C@H]1O | inactive: 15.6% |  |
| CC(=O)[C@]1(O)CCC2C3CC(C)C4=CC(=O)C=CC4(C)[C@@]3(F)C(O)C[C@]21C (some centres not stated) | inactive: 19.3% |  |
| CS(=O)(=O)N1CCC2(CC1)CN(c1ccc(-c3ccccc3)cc1)C2 | inactive: 13.7% |  |
| CCC1CN(CCNC(=O)c2cscn2)Cc2cc(OC)ccc2O1 (configuration not stated) | inactive: -6.31% |  |

| Compound | activity change, negative = inhibition | Potency |
| --- | --- | --- |
| C(=Nc1cnc2ccccc2c1)c1ccc2ccccc2n1 | inactive: 4.41% |  |
| CC[N+](C)(CC)CCOC(=O)C(O)(c1ccccc1)C1CCCCC1 (configuration not stated) | inactive: 22.3% |  |
| CC1(C)CC(C(=O)N2CCOc3ccc(CN4CCN(Cc5ccccn5)CC4)cc3C2)CCO1 (configuration not stated) | inactive: 3.69% |  |
| CC(C)(CNC(=O)c1cnn(-c2nccc(-c3ccccc3F)n2)c1C1CC1)N1CCOCC1 | inactive: 10.3% |  |
| COc1cccc(Cn2c(=O)c(-c3cccs3)nc3cnc(N4CCN(C)CC4)nc32)c1 | inactive: 29.4% |  |
| COc1ccc2c(c1)CCC1C2CC[C@@]2(C)C1CC[C@@H]2NCCCCCCN1C(=O)CCC1=O (some centres not stated) | inactive: 16.9% [at 75.8 µM] |  |
| Nc1ccc(/C=C/c2ccc3ncccc3c2)cc1 | inactive: 17% |  |
| C[C@@H]1CN(Cc2ccc3c(c2)CN(C(=O)c2ccc(Oc4ccccc4)o2)CCO3)C[C@H](C)O1 | inactive: 9.99% |  |
| O=C(O)C[C@H]1c2ccc(C(F)(F)F)cc2S(=O)(=O)N1Cc1ccccc1 | inactive: -16.3% |  |
| Cc1ccc(C(C)(C)c2ccc(C)cc2)cc1 | inactive: 16.1% |  |
| COc1ccc(Oc2ncc3nc(-c4ccccc4)c(=O)n(Cc4cccs4)c3n2)cc1 | inactive: 12.3% |  |
| COc1ccc(-n2c(=O)c(-c3cc(F)cc(F)c3)nc3cnc(N(C)C)nc32)cc1 | inactive: 56.3% |  |
| COc1cc(C(=O)OCCCN2CCCN(CCCOC(=O)c3cc(OC)c(OC)c(OC)c3)CC2)cc(OC)c1OC | inactive |  |
| COC(=O)C1=C(C)NC(C)=C([N+](=O)[O-])C1c1ccccc1C(F)(F)F (configuration not stated) | inactive |  |
| CC(C)c1c(C(=O)N(C)Cc2cccc3ncccc23)cnn1-c1nccc(-c2ccco2)n1 | inactive: 9.13% |  |
| Nc1c(CC(=O)O)cccc1C(=O)c1ccccc1 | inactive |  |
| O=Cc1ccccc1C=O | inactive: -2.01% |  |
| O=C(NCc1cccnc1)[C@@H]1CC=C[C@@H]2CCN(C3CCCCC3)C(=O)[C@@H]21 | inactive: 15.2% |  |
| Cc1nc2cnc(N(C)C)nc2n(Cc2cccs2)c1=O | inactive: 11.5% |  |
| COc1cc(=O)n2c(c1C(=O)N(C)Cc1nonc1C)CCN(Cc1cc(F)ccc1F)CC2 | inactive: 10.1% |  |
